This note sets out measurements from the supplement of paper PMC12217912.

Some of the results follow. Sequences were assembled here from the parent chain. Inactive controls read about 0.05.

The chains are these.
B1: TEV protease; numbered along this chain (parent)
chain: MGESLFKGPRDYNPISSSICHLTNESDGHTTSLYGIGFGPFIITNKHLFRRNNGTLVVQSLHGVFKVKDTTTLQQHLVDGRDMIIIRMPKDFPPFPQKLKFREPQREERICLVTTNFQTKSMSSMVSDTSCTFPSGDGIFWKHWIQTKDGQCGSPLVSTRDGFIVGIHSASNFTNTNNYFTSVPKNFMELLTNQEAQQWVSGWRLNADSVLWGGHKVFMVKPEEPFQPVKEATQL

The variants in the assay derive from B1. As to the kind of experiment: raw area under fraction-flipped curve 0-4 h after induction (AUC4h, not background-subtracted), DNA-recorder readout of cleavage of the substrate (dimensionless); higher = more cleavage of the substrate by the protease variant. As to conditions: temperature: 34 °C; time window: 0-4 h after rhamnose induction. Here is the method:
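In vivo DNA recorder in E. coli TOP10(DE3) ΔrhaA at 34 °C. Each TEVp single-site mutant (parent TEVp 0) is paired with a single-site variant of the 7-mer TEVs (canonical ENLYFQ|S). The substrate sits between flexible linkers in a Bxb1-sfGFP-TEVs-SsrA fusion, so cleavage stabilises Bxb1 and speeds flipping of a recombination array, read by NGS. The value is the raw area under the fraction-flipped curve over 0-4 h after rhamnose induction (AUC4h), with ≥20 reads per time point. It is not background-subtracted; inactive controls average about 0.047.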
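Note: Bxb1 expression induced with 0.2% (w/v) L-rhamnose at OD600 near 0.5, cultures sampled hourly, flipped fraction per protease–substrate barcode pair counted by paired-end Illumina sequencing.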

Consider MGESLFKGPRDYNPISSCICHLTNESDGHTTSLYGIGFGPFIITNKHLFRRNNGTLVVQSLHGVFKVKDTTTLQQHLVDGRDMIIIRMPKDFPPFPQKLKFREPQREERICLVTTNFQTKSMSSMVSDTSCTFPSGDGIFWKHWIQTKDGQCGSPLVSTRDGFIVGIHSASNFTNTNNYFTSVPKNFMELLTNQEAQQWVSGWRLNADSVLWGGHKVFMVKPEEPFQPVKEATQL [S18C], for which the “area with substrate ANLYFQS” value was 0.0535, the “area with substrate CNLYFQS” value was 0.0421, the “area with substrate DNLYFQS” value was 0.074 and the “area with substrate FNLYFQS” value was 0.0468. The “area with substrate GNLYFQS” value came to 0.0697, the “area with substrate HNLYFQS” value was 0.0589, the “area with substrate KNLYFQS” value is 0.0702 and the “area with substrate LNLYFQS” value turned out to be 0.0574. Further, the “area with substrate NNLYFQS” value is 0.0671, the “area with substrate PNLYFQS” value worked out at 0.0747, the “area with substrate TNLYFQS” value came out at 0.0563 and the “area with substrate VNLYFQS” value worked out at 0.0801. The “area with substrate WNLYFQS” value turned out to be 0.0541 and the “area with substrate YNLYFQS” value worked out at 0.0752.
With MGESLFKGPRDYNPISSSICHLPNESDGHTTSLYGIGFGPFIITNKHLFRRNNGTLVVQSLHGVFKVKDTTTLQQHLVDGRDMIIIRMPKDFPPFPQKLKFREPQREERICLVTTNFQTKSMSSMVSDTSCTFPSGDGIFWKHWIQTKDGQCGSPLVSTRDGFIVGIHSASNFTNTNNYFTSVPKNFMELLTNQEAQQWVSGWRLNADSVLWGGHKVFMVKPEEPFQPVKEATQL [T23P], the “area with substrate ANLYFQS” value came to 0.0271, the “area with substrate CNLYFQS” value amounted to 0.0396, the “area with substrate DNLYFQS” value was found to be 0.0367 and the “area with substrate FNLYFQS” value amounted to 0.0235. For the same variant, the “area with substrate GNLYFQS” value was found to be 0.0454, the “area with substrate HNLYFQS” value was 0.0408, the “area with substrate INLYFQS” value turned out to be 0.0365 and the “area with substrate KNLYFQS” value amounted to 0.0418. The “area with substrate LNLYFQS” value is 0.0464, the “area with substrate NNLYFQS” value stood at 0.047, the “area with substrate PNLYFQS” value turned out to be 0.0355 and the “area with substrate QNLYFQS” value came out at 0.0456. Further, the “area with substrate SNLYFQS” value was 0.0454, the “area with substrate TNLYFQS” value came to 0.0496, the “area with substrate VNLYFQS” value turned out to be 0.0872 and the “area with substrate WNLYFQS” value is 0.0381. Moreover, the “area with substrate YNLYFQS” value amounted to 0.0424.
As to MGESLFKGPRDYNPISSSRCHLTNESDGHTTSLYGIGFGPFIITNKHLFRRNNGTLVVQSLHGVFKVKDTTTLQQHLVDGRDMIIIRMPKDFPPFPQKLKFREPQREERICLVTTNFQTKSMSSMVSDTSCTFPSGDGIFWKHWIQTKDGQCGSPLVSTRDGFIVGIHSASNFTNTNNYFTSVPKNFMELLTNQEAQQWVSGWRLNADSVLWGGHKVFMVKPEEPFQPVKEATQL [I19R], the “area with substrate ANLYFQS” value is 0.0423, the “area with substrate CNLYFQS” value stood at 0.0431, the “area with substrate DNLYFQS” value amounted to 0.0472 and the “area with substrate FNLYFQS” value was 0.0444. Moreover, the “area with substrate GNLYFQS” value was 0.0386, the “area with substrate HNLYFQS” value was determined as 0.0428, the “area with substrate INLYFQS” value stood at 0.0436 and the “area with substrate KNLYFQS” value is 0.0644. For the same variant, the “area with substrate LNLYFQS” value stood at 0.059, the “area with substrate PNLYFQS” value was 0.0563, the “area with substrate RNLYFQS” value worked out at 0.062 and the “area with substrate SNLYFQS” value stood at 0.0439. Also, the “area with substrate TNLYFQS” value was 0.051, the “area with substrate VNLYFQS” value was found to be 0.081, the “area with substrate WNLYFQS” value was found to be 0.0543 and the “area with substrate YNLYFQS” value amounted to 0.0404.
With MGESLFKGPRDYWPISSSICHLTNESDGHTTSLYGIGFGPFIITNKHLFRRNNGTLVVQSLHGVFKVKDTTTLQQHLVDGRDMIIIRMPKDFPPFPQKLKFREPQREERICLVTTNFQTKSMSSMVSDTSCTFPSGDGIFWKHWIQTKDGQCGSPLVSTRDGFIVGIHSASNFTNTNNYFTSVPKNFMELLTNQEAQQWVSGWRLNADSVLWGGHKVFMVKPEEPFQPVKEATQL [N13W], the “area with substrate ANLYFQS” value turned out to be 0.0643, the “area with substrate CNLYFQS” value was 0.0728, the “area with substrate DNLYFQS” value came out at 0.0764 and the “area with substrate HNLYFQS” value turned out to be 0.0702. In addition, the “area with substrate INLYFQS” value came out at 0.0659, the “area with substrate KNLYFQS” value stood at 0.0634, the “area with substrate LNLYFQS” value turned out to be 0.0588 and the “area with substrate MNLYFQS” value is 0.0691. Further, the “area with substrate NNLYFQS” value turned out to be 0.0589, the “area with substrate PNLYFQS” value was 0.086, the “area with substrate RNLYFQS” value worked out at 0.0287 and the “area with substrate SNLYFQS” value turned out to be 0.0759. The “area with substrate TNLYFQS” value amounted to 0.0637 and the “area with substrate WNLYFQS” value turned out to be 0.0495.
For the variant MGESLFKGPRDYVPISSSICHLTNESDGHTTSLYGIGFGPFIITNKHLFRRNNGTLVVQSLHGVFKVKDTTTLQQHLVDGRDMIIIRMPKDFPPFPQKLKFREPQREERICLVTTNFQTKSMSSMVSDTSCTFPSGDGIFWKHWIQTKDGQCGSPLVSTRDGFIVGIHSASNFTNTNNYFTSVPKNFMELLTNQEAQQWVSGWRLNADSVLWGGHKVFMVKPEEPFQPVKEATQL [N13V], the “area with substrate ANLYFQS” value was determined as 0.0674, the “area with substrate CNLYFQS” value amounted to 0.0633, the “area with substrate DNLYFQS” value was 0.0771 and the “area with substrate FNLYFQS” value is 0.0526. Moreover, the “area with substrate GNLYFQS” value was determined as 0.061, the “area with substrate HNLYFQS” value was found to be 0.0647, the “area with substrate INLYFQS” value worked out at 0.058 and the “area with substrate KNLYFQS” value came to 0.065. Further, the “area with substrate LNLYFQS” value is 0.0859, the “area with substrate NNLYFQS” value came out at 0.0674, the “area with substrate PNLYFQS” value was determined as 0.075 and the “area with substrate SNLYFQS” value is 0.0486. Also, the “area with substrate TNLYFQS” value is 0.0692, the “area with substrate WNLYFQS” value was found to be 0.0533 and the “area with substrate YNLYFQS” value was found to be 0.0582.
In the case of MGESLFKGPRDYNPISSSICHLTQESDGHTTSLYGIGFGPFIITNKHLFRRNNGTLVVQSLHGVFKVKDTTTLQQHLVDGRDMIIIRMPKDFPPFPQKLKFREPQREERICLVTTNFQTKSMSSMVSDTSCTFPSGDGIFWKHWIQTKDGQCGSPLVSTRDGFIVGIHSASNFTNTNNYFTSVPKNFMELLTNQEAQQWVSGWRLNADSVLWGGHKVFMVKPEEPFQPVKEATQL [N24Q], the “area with substrate ANLYFQS” value was determined as 0.078, the “area with substrate CNLYFQS” value is 0.0626, the “area with substrate GNLYFQS” value worked out at 0.0454 and the “area with substrate HNLYFQS” value is 0.0367. Moreover, the “area with substrate KNLYFQS” value was 0.0823, the “area with substrate LNLYFQS” value was 0.0565, the “area with substrate MNLYFQS” value was determined as 0.0349 and the “area with substrate NNLYFQS” value turned out to be 0.0677. The “area with substrate PNLYFQS” value stood at 0.0663, the “area with substrate QNLYFQS” value turned out to be 0.0797, the “area with substrate SNLYFQS” value is 0.0467 and the “area with substrate TNLYFQS” value was found to be 0.078. The “area with substrate VNLYFQS” value worked out at 0.0622 and the “area with substrate WNLYFQS” value was 0.0599.
For MGESLFKGPRDYNPISSSICHLTHESDGHTTSLYGIGFGPFIITNKHLFRRNNGTLVVQSLHGVFKVKDTTTLQQHLVDGRDMIIIRMPKDFPPFPQKLKFREPQREERICLVTTNFQTKSMSSMVSDTSCTFPSGDGIFWKHWIQTKDGQCGSPLVSTRDGFIVGIHSASNFTNTNNYFTSVPKNFMELLTNQEAQQWVSGWRLNADSVLWGGHKVFMVKPEEPFQPVKEATQL [N24H], the “area with substrate ANLYFQS” value came to 0.0487, the “area with substrate CNLYFQS” value turned out to be 0.0811, the “area with substrate DNLYFQS” value worked out at 0.0787 and the “area with substrate FNLYFQS” value was 0.0722. For the same variant, the “area with substrate GNLYFQS” value came to 0.0676, the “area with substrate HNLYFQS” value worked out at 0.0648, the “area with substrate INLYFQS” value is 0.0603 and the “area with substrate KNLYFQS” value worked out at 0.0553. Besides, the “area with substrate MNLYFQS” value stood at 0.059, the “area with substrate NNLYFQS” value was found to be 0.0729, the “area with substrate SNLYFQS” value was 0.0543 and the “area with substrate TNLYFQS” value was 0.0589. For the same variant, the “area with substrate WNLYFQS” value turned out to be 0.0653.
For MGESLFKGPRDYNPISSSICHLTRESDGHTTSLYGIGFGPFIITNKHLFRRNNGTLVVQSLHGVFKVKDTTTLQQHLVDGRDMIIIRMPKDFPPFPQKLKFREPQREERICLVTTNFQTKSMSSMVSDTSCTFPSGDGIFWKHWIQTKDGQCGSPLVSTRDGFIVGIHSASNFTNTNNYFTSVPKNFMELLTNQEAQQWVSGWRLNADSVLWGGHKVFMVKPEEPFQPVKEATQL [N24R], the “area with substrate ANLYFQS” value amounted to 0.0531, the “area with substrate CNLYFQS” value stood at 0.0646, the “area with substrate DNLYFQS” value worked out at 0.0651 and the “area with substrate GNLYFQS” value came out at 0.0528. Further, the “area with substrate HNLYFQS” value was 0.0562, the “area with substrate INLYFQS” value came out at 0.0602, the “area with substrate KNLYFQS” value was found to be 0.06 and the “area with substrate MNLYFQS” value was 0.0627. Besides, the “area with substrate PNLYFQS” value was 0.0646, the “area with substrate QNLYFQS” value came to 0.0517, the “area with substrate TNLYFQS” value was 0.0609 and the “area with substrate YNLYFQS” value worked out at 0.0789.
On to MGESLFKGPRDYNPISSSICHLTTESDGHTTSLYGIGFGPFIITNKHLFRRNNGTLVVQSLHGVFKVKDTTTLQQHLVDGRDMIIIRMPKDFPPFPQKLKFREPQREERICLVTTNFQTKSMSSMVSDTSCTFPSGDGIFWKHWIQTKDGQCGSPLVSTRDGFIVGIHSASNFTNTNNYFTSVPKNFMELLTNQEAQQWVSGWRLNADSVLWGGHKVFMVKPEEPFQPVKEATQL [N24T], for which the “area with substrate ANLYFQS” value was 0.0615, the “area with substrate CNLYFQS” value was determined as 0.0737, the “area with substrate FNLYFQS” value was determined as 0.0323 and the “area with substrate GNLYFQS” value turned out to be 0.0666. The “area with substrate HNLYFQS” value came out at 0.0499, the “area with substrate INLYFQS” value was 0.0661, the “area with substrate LNLYFQS” value worked out at 0.0662 and the “area with substrate NNLYFQS” value worked out at 0.0621. Further, the “area with substrate PNLYFQS” value was 0.0648, the “area with substrate SNLYFQS” value is 0.0757, the “area with substrate TNLYFQS” value was found to be 0.0653 and the “area with substrate VNLYFQS” value was determined as 0.0641. Further, the “area with substrate WNLYFQS” value was 0.0606 and the “area with substrate YNLYFQS” value stood at 0.0789.
